Reference: PMC4336329 (PLoS ONE, 2015)
The campaign covered roughly 310,000 compounds. About 14,000 (4.5%) showed an effect of 50% or more. The effect is printed as a negative number. The list shows a part of the results.

Target: human ether-à-go-go-related gene (hERG) potassium channel (human, UniProt Q12809)
Assay: primary screen, population patch clamp on CHO cells stably expressing hERG
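Also: peak tail current of the secondary pulse compared with the same well before compound.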

Chain of human ether-à-go-go-related gene (hERG) potassium channel (Q12809 whole entry, looked up): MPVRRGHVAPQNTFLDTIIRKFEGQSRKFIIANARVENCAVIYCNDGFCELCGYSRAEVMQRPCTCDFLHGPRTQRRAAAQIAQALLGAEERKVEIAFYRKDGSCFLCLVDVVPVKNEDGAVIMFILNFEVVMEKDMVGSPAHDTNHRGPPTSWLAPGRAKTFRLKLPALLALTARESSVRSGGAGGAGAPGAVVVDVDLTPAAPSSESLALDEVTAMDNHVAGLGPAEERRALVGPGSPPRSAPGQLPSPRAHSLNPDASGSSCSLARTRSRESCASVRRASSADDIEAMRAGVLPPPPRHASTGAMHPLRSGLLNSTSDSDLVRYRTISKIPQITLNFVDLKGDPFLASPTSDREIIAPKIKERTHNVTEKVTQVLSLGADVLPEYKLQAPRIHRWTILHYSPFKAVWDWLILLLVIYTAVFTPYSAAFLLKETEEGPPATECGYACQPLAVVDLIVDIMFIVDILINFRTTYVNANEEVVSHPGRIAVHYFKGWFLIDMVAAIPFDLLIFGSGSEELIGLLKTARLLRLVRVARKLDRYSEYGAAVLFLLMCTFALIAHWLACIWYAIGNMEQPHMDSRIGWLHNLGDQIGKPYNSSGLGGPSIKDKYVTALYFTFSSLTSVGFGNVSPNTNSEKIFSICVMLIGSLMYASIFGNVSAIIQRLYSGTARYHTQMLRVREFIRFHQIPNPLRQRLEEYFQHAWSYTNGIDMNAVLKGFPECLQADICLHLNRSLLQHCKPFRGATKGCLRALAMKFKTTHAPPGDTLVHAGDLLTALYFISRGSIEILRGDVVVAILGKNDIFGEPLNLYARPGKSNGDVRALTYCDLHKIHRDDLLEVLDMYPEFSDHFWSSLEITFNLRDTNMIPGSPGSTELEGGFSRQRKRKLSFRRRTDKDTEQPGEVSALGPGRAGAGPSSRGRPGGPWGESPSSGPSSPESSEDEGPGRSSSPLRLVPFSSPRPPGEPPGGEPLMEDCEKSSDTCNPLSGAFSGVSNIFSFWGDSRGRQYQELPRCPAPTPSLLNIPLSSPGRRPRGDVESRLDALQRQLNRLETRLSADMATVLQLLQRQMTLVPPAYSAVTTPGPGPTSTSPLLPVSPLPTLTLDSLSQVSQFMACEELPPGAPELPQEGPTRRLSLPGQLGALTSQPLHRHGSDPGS

Row | SMILES | hERG current change (%, negative = inhibition) at 10uM
1 | CC(=O)N1N=C(c2cccc([N+](=O)[O-])c2)OC1c1ccccc1Cl (stereo not shown) | -25.8%
2 | COc1ccc(Cl)cc1NC(=S)NCc1cccs1 | 3.26%
3 | COc1ccc(C(=O)Nc2ccncc2)cc1OC | -6.96%
4 | COCCC(=O)NC12CC3CC(CC(C3)C1)C2 | 5.74%
5 | O=C(NCC(c1ccco1)N1CCCCC1)c1ccc(S(=O)(=O)Nc2ccccc2)cc1 (stereo not shown) | -2.49%
6 | COc1ccc(-c2csc(NC(=O)C3CC(=O)N(c4ccc5c(c4)OCCO5)C3)n2)cc1 (stereo not shown) | 4.17%
7 | CCCc1nc2ccccc2c(NC(=O)CN(CC)CC)c1CC.O=C(O)C(=O)O | 3.18%
8 | Cc1cc(O)c(/C=N/c2ccccn2)c(=O)o1 | 9.41%
9 | CCOC(=O)Cn1c(=O)cc(C)c2cccc(C)c21 | 7.27%
10 | Cn1c(SCC2CCCO2)nnc1-c1ccncc1 (stereo not shown) | 12.3%
11 | Cc1cc(Br)ccc1OCCOCCN1CCCC1.O=C(O)C(=O)O | -60.7%
12 | CCOc1cc(N2CCOCC2)c(OCC)cc1NC(=O)C1=COCCO1 | -36.1%
13 | Cc1ccc(OCCn2cc(/C=C(\C#N)C(=O)NCC3CCCO3)c3ccccc32)cc1C (stereo not shown) | 9.61%
14 | O=C(CNc1ccccc1F)Nc1cccc2ccccc12 | 3.43%
15 | CCc1noc(C)c1C(=O)OCC(=O)NC(=O)c1ccccc1 | 1%
16 | O=C(CSCc1nc2ccccc2[nH]1)Nc1ccc2ccccc2c1 | 1.11%
17 | CC(C)C(=O)Nc1cccc(NC(=O)c2ccc([N+](=O)[O-])cc2Cl)c1 | -25.2%
18 | CC(=O)N1C(c2ccccc2O)C[C@]2(C)CC(=O)NC12 (stereo partly shown) | 16.1%
19 | CC(C)N1CC2=C(C1=O)C(c1ccc(O)cc1)NC(=O)N2C (stereo not shown) | -2.5%
20 | COc1cc(/C=C/C(=O)Nc2nnc(C(C)(C)C)s2)cc(OC)c1OC | 25.1%
21 | CCOC(=O)C1(N(CC)CC)Sc2cc(C)ccc2NC1=O (stereo not shown) | 12.9%
22 | CC(CC(=O)N1CCN(c2ccccc2)CC1)S(=O)(=O)c1ccc2c(c1)NC(=O)CS2 (stereo not shown) | -34.6%
23 | C/C(=N\NC(=O)c1ccn[nH]1)c1cn(C)nc1C | 5.21%
24 | CCOc1ccccc1C1N=C(c2ccc(OC)cc2)CC(c2ccccc2O)N1 (stereo not shown) | 1.02%
25 | O=C(Nc1nnc(-c2ccncc2)o1)c1cccc(N2C(=O)CCC2=O)c1 | 4.56%
